Reference: PubChem BioAssay AID485294 (National Center for Advancing Translational Sciences (NCATS), 2010)
The whole screen tested about 370,000 compounds, of which about 150 (0.041%) were called active. Inconclusive results, whose numbers are uncertain, are shown with a selection of clear calls. The call rests on the fitted dose curve; in most records, active means well fitted inhibition curve with a large enough effect; inconclusive means small, poorly fitted or top-dose-only effect; inactive means flat fitted curve, though single readings scatter. No potency is given beside an inconclusive call; the fits are too rough.

molecular target: Beta-lactamase (Escherichia coli (strain K12)) (UniProt P00811); test: qHTS Inhibitors of AmpC Beta-Lactamase (assay with detergent); conditions: AmpC hydrolysis of nitrocefin, absorbance 480 nm, 0.01% Triton; activity change, negative = inhibition: at 114 µM (top of the series); further: nearly all actives have a fitted effect of over 25% in size;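 on activity change, negative = inhibition: 0% = no-compound wells and -100% = no-enzyme wells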
Sequence of UniProt P00811 (P00811 whole entry, looked up): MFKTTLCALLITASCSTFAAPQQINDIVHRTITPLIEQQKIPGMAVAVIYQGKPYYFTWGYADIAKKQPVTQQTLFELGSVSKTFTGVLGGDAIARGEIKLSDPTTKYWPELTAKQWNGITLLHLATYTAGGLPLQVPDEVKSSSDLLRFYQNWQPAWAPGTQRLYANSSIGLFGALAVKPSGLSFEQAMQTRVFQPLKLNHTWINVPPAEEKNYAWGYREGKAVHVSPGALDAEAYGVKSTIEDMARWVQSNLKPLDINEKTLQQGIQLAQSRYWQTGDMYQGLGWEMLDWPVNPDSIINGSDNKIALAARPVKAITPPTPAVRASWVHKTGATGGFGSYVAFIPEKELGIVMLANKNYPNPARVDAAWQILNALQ
Procedure, shortened: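 AmpC (5.3 nM in the dispensed reagent) in 20 mM phosphate pH 7.0 with 0.01% (detergent screen) or 0.0001% Triton X-100 was preincubated with compounds for 15 min at room temperature. Nitrocefin was then added from an 800 uM solution, and hydrolysis was followed at 480 nm.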
Potency means the concentration at half of the fitted maximal effect; tags describe the fitted curve by direction and shape.

| Compound | activity change, negative = inhibition | Potency |
| --- | --- | --- |
| COc1ccccc1Nc1nc(NCc2ccco2)c2ccccc2n1 | inactive: 4.35% | – |
| O=C(OCn1ncc(Cl)c(Cl)c1=O)c1ccccc1Cl | – | inconclusive [inhibitor, full curve] |
| Cc1ccc(C(=O)Nc2ccc3c(c2)ncn3C)cc1 | – | inconclusive [inhibitor, full curve, poor fit] |
| COc1ccc(C(=O)NC2CCN(C(=O)NCc3ccccc3)CC2)cc1 | – | inconclusive [inhibitor, full curve, poor fit] |
| O=C(O)c1ccc(S(=O)(=O)N2CCSCC2)cc1 | – | inconclusive [inhibitor, full curve, poor fit] |
| Cc1ccc(C2(CCNCc3ccco3)CCOC(C(C)C)C2)cc1 (stereo not given) | inactive: 7.1% | – |
| CCC(=O)N1CCc2cc(S(=O)(=O)CCC(=O)N3CCN(c4ccc(C(C)=O)cc4)CC3)ccc21 | – | inconclusive [inhibitor, full curve] |
| O=C1CC(c2ccc(F)cc2)Cc2nc(N3CCN(c4ccccc4)CC3)ncc21 (stereo not given) | – | inconclusive [inhibitor, full curve, poor fit] |
| CCCCCCC(C)n1cc(C(C)=O)c(=O)[nH]c1=O (stereo not given) | – | inconclusive [inhibitor, full curve, poor fit] |
| CCc1c(C)nc2ncnn2c1N1CCC(C(=O)Nc2ccc(C)cc2)CC1 | – | inconclusive [inhibitor, single point] |
| Cc1nc2ccc(NC(=O)Cc3cccc(F)c3)cc2s1 | – | inconclusive [inhibitor, full curve, poor fit] |
| Cc1ccc(C(=O)CSc2ncn[nH]2)cc1 | – | inconclusive [inhibitor, partial curve, poor fit] |
| COc1cc(Cl)c(C)cc1NC(=O)CCN1C(=O)NC(C)(C)C1=O | inactive: -12.8% | – |
| Cc1ccc(Cl)cc1N1CCN(C(=O)C2CCN(S(=O)(=O)c3ccc4c(c3)oc(=O)n4C)CC2)CC1 | inactive: -6.72% | – |
| O=C(Nc1ccc(F)cc1Cl)C1Cc2ccccc2N1C(=O)c1ccccc1 (stereo not given) | inactive: -6.46% | – |
| COc1ccc(OC)c(NC(=O)CCN2CC(C)OC(C)C2)c1 (stereo not given) | inactive: -14% | – |
| O=C(CN(C(=O)c1csnn1)c1ccc(F)c(Cl)c1)NC1CCCC1 | – | inconclusive [inhibitor, partial curve, poor fit] |
| COc1ccc(NC(=O)CSc2nnc(-c3ccoc3C)n2CCc2ccccc2)cc1 | – | inconclusive [inhibitor, full curve, poor fit] |
| Cc1cc(C)c(NC(=O)CCCN2CCCC2)c(C)c1 | – | inconclusive [inhibitor, full curve, poor fit] |
| CCN(CC)C(=O)c1cc(C(C)(C)C)c(O)c(C(C)(C)C)c1 | inactive: 1.49% | – |
| CN1CCN(c2nc3c(c(=O)[nH]c(=O)n3C)n2CCSc2ncccn2)CC1 | – | inconclusive [inhibitor, partial curve, poor fit] |
| COc1cccc(C2CC(C(F)(F)F)n3ncc(C(=O)NC(C)(C)C)c3N2)c1 (stereo not given) | inactive: -1.81% | – |
| Cn1c(C(=O)OC(C(=O)NC2CCCC2)c2cccnc2)cc2sccc21 (stereo not given) | – | inconclusive [inhibitor, full curve, poor fit] |

| Compound | activity change, negative = inhibition | Potency |
| --- | --- | --- |
| COc1ccc(C(=O)NCC(c2ccc3c(c2)OCO3)N2CCN(c3ccc(OC)cc3)CC2)cc1 (stereo not given) | inactive: -14.7% | – |
| Cn1c(CNC(=O)CCNC(=O)c2ccccc2)cc(=O)n(C)c1=O | – | inconclusive [inhibitor, single point] |
| COc1cc(OC)c(C(=O)OCC(=O)Nc2ccccc2Cl)cc1OC | – | inconclusive [inhibitor, full curve, poor fit] |
| CCc1ccc(NC(=O)c2ccccc2Br)cc1 | inactive: 0.0621% | – |
| Cc1ccc(NC(=O)NCCCCc2ccccc2)cc1 | inactive: -2.37% | – |
| Cn1c(C(=O)NCCCN2CCCCCC2)cc2c(=O)n(C)c3ccccc3c21 | – | inconclusive [inhibitor, full curve, poor fit] |
| CC(C)OCCCNC(=O)c1cn(C)c2ccc(S(=O)(=O)N3CCCC3)cc2c1=O | inactive: -1.51% | – |
| O=C(Nc1ccccc1N1CCCCC1)C1CCN(S(=O)(=O)c2cccc(C(F)(F)F)c2)CC1 | – | inconclusive [inhibitor, full curve] |
| O=Cc1c(C(=O)O)n(Cc2ccc(Cl)cc2)c2ccccc12 | – | inconclusive [inhibitor, full curve, poor fit] |
| NC(N)=NCCCC(NC(=O)c1ccccc1)C(=O)Nc1ccc([N+](=O)[O-])cc1 (stereo not given) | inactive: -22.8% | – |
| N#CCSc1nnc(-c2cccnc2)n1-c1ccccc1 | – | inconclusive [inhibitor, full curve, poor fit] |
| Cn1c2ccsc2c2cnn(Cc3ccc(F)cc3)c(=O)c21 | – | inconclusive [inhibitor, full curve] |
| COc1ccc(NS(=O)(=O)c2cccc(C(=O)NCc3cccnc3)c2)cc1 | – | inconclusive [inhibitor, full curve, poor fit] |
| O=C(Nc1cccnc1)c1ccc(Cl)cc1[N+](=O)[O-] | – | inconclusive [inhibitor, partial curve] |
| CN1CCN(CCCOc2ccc(-c3ccccc3)cc2)CC1 | – | inconclusive [inhibitor, full curve, poor fit] |
| CCN(CC)c1ccc(CC2C(=O)N(C)C(=O)N(C)C2=O)cc1 | inactive: -8% | – |
| Cc1ccccc1NC(=O)c1ccc(F)c(S(=O)(=O)N(C)C2CCCCC2)c1 | inactive: 2.8% | – |
| CCOC(=O)c1[nH]c(C)c(C(=O)NCCC2=CCCCC2)c1C | – | inconclusive [inhibitor, single point] |
| CC(NC(=O)CN1CCCC1)c1ccccc1 (stereo not given) | – | inconclusive [inhibitor, full curve, poor fit] |
| COc1cc2c(cc1OC)C(c1cc(Br)c(OC)c(OC)c1)CC(=O)N2 (stereo not given) | – | inconclusive [inhibitor, partial curve] |
| Clc1ccccc1CN1CCN(/N=C/C=C\c2ccco2)CC1 | inactive: -0.352% | – |
| CCCCCNC(=O)c1ccc2c(c1)nc(C)n2-c1cccc(C)c1 | inactive: 1.67% | – |
